# Laboratory results as given in PubChem BioAssay (NCATS).
# This list was built around the results that the source calls inconclusive (neither active nor inactive); the mix of calls is not that of the screen. For some assays here: Potencies of inconclusive entries are doubtful fits and often do not repeat. Active and inactive are the calls of the source. The call rests on the fitted dose curve; in most records, active means well fitted curve in the direction sought with a large enough effect; inconclusive means small, poorly fitted or top-dose-only effect, or another doubt; inactive means no such curve, though single readings can be large; an effect the other way counts as inactive or inconclusive.
# Key:
# MKL-2 = test: qHTS assay to identify novel small-molecules to repurpose for Merkel cell carcinoma treatment (AID 1296009); conditions: MCC and control cell lines, CellTiter-Glo viability, 72 h; series mostly up to 46 µM; further: nearly all actives have a fitted effect of over 60% in size
# Method in brief: (§1)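 Cells were incubated with compound for 72 hr at 37 degree celsius before CellTiter-Glo addition. Luminescence was normalized with no-cell wells as full cytotoxicity and DMSO as baseline.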
# WaGa = test: as above; conditions: MCC and control cell lines, CellTiter-Glo viability, 72 h; series mostly up to 46 µM
# Method in brief: as §1
# UISO = test: as above; conditions: MCC and control cell lines, CellTiter-Glo viability, 72 h; series mostly up to 46 µM
# Method in brief: as §1
# Es-2 = test: Primary qHTS to identify gynecologic anti-cancer compounds using libraries of approved drugs and bioactive compounds (AID 1345084); conditions: Gynecologic cancer cell panel viability, ATPlite luminescence, 48 h; series mostly up to 57.5 µM; further: nearly all actives have a fitted effect of over 55% in size
# Method in brief: (§2)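 Five-concentration response, 48 h; readout is ATP-driven luciferase luminescence.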
# HeLa = test: as above; conditions: Gynecologic cancer cell panel viability, ATPlite luminescence, 48 h; series mostly up to 57.5 µM
# Method in brief: as §2
# TAB109 = test: qHTS profiling for inhibitors of Plasmodium falciparum proliferation (AID 504749); further: nearly all actives have a fitted effect of over 60% in size; conditions: P. falciparum in erythrocytes, SYBR Green DNA, 72 h; series mostly up to 28.7 µM
# Method in brief: (§3)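 Readout was DNA-dye fluorescence from lysed cultures, ex 485/em 535 nm. Parasitized red cells had grown 72 h with compound; data scaled between 0.29 uM artemisinin and DMSO wells and corrected using vehicle-only plates.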
# TAB165 = test: as above; conditions: P. falciparum in erythrocytes, SYBR Green DNA, 72 h; series mostly up to 28.7 µM
# Method in brief: as §3
# W2 = test: as above; conditions: P. falciparum in erythrocytes, SYBR Green DNA, 72 h; series mostly up to 28.7 µM
# Method in brief: as §3
# C33A = test: Primary qHTS to identify gynecologic anti-cancer compounds using libraries of approved drugs and bioactive compounds (AID 1345084); conditions: Gynecologic cancer cell panel viability, ATPlite luminescence, 48 h; series mostly up to 57.5 µM; further: nearly all actives have a fitted effect of over 55% in size
# Method in brief: as §2
# CASKI = test: as above; conditions: Gynecologic cancer cell panel viability, ATPlite luminescence, 48 h; series mostly up to 57.5 µM
# Method in brief: as §2
# JEG-3 = test: as above; conditions: Gynecologic cancer cell panel viability, ATPlite luminescence, 48 h; series mostly up to 57.5 µM
# Method in brief: as §2
# OV90 = test: as above; conditions: Gynecologic cancer cell panel viability, ATPlite luminescence, 48 h; series mostly up to 57.5 µM
# Method in brief: as §2
# CAOV3 = test: as above; conditions: Gynecologic cancer cell panel viability, ATPlite luminescence, 48 h; series mostly up to 57.5 µM
# Method in brief: as §2
# Potency means the concentration at half of the fitted maximal effect; tags describe the fitted curve by direction and shape.
structure (smiles),measurement,setting,value
C=C1C[C@H]2[C@H]3CCC(=O)[C@@]3(C)CC[C@@H]2[C@@]2(C)C=CC(=O)C=C12,Potency,MKL-2,"inconclusive: 18.7 µM [inhibitor, partial curve]"
same,Potency,WaGa,"inconclusive: 18.7 µM [inhibitor, partial curve, poor fit]"
CN(C)CCc1c[nH]c2cccc(OP(=O)(O)O)c12,Potency,MKL-2,inactive
same,Potency,UISO,inactive
same,Potency,Es-2,inactive
same,Potency,HeLa,inactive
NC1=NC(=O)N2CC12 (stereo unspecified),Potency,TAB109,"inconclusive: 8.91 µM [inhibitor, single point]"
same,Potency,TAB165,"inconclusive: 17.8 µM [inhibitor, single point]"
same,Potency,W2,"inconclusive: 16.9 µM [inhibitor, single point]"
same,Potency,MKL-2,"inconclusive: 33.2 µM [inhibitor, single point]"
same,Potency,UISO,"inconclusive: 26.4 µM [inhibitor, single point]"
same,Potency,WaGa,"inconclusive: 18.7 µM [inhibitor, partial curve]"
Cc1c(C(=O)Nc2cccc(C(F)(F)F)c2)cc(-c2ccccc2)n1CCCN1CCOCC1,Potency,MKL-2,"inconclusive: 11.8 µM [inhibitor, partial curve]"
same,Potency,UISO,"inconclusive: 23.5 µM [inhibitor, single point]"
same,Potency,WaGa,"inconclusive: 16.6 µM [inhibitor, partial curve]"
same,Potency,C33A,inactive
same,Potency,CASKI,"inconclusive: 39.8 µM [cytotoxic, single point]"
same,Potency,JEG-3,inactive
O=C(O)c1nn(Cc2ccc(Cl)cc2Cl)c2ccccc12,Potency,MKL-2,inactive
same,Potency,OV90,"inconclusive: 35.5 µM [rising, single point]"
O=C(O)CCCc1ccc(N(CCCl)CCCl)cc1,Potency,TAB165,inactive
same,Potency,W2,"inconclusive: 19 µM [inhibitor, partial curve, poor fit]"
same,Potency,MKL-2,"inconclusive: 11.8 µM [inhibitor, single point]"
Nc1ccccc1,Potency,MKL-2,inactive
same,Potency,HeLa,inactive
COc1ccc2[nH]cc(CCN(C(C)C)C(C)C)c2c1,Potency,MKL-2,"inconclusive: 39.7 µM [inhibitor, partial curve, poor fit]"
same,Potency,Es-2,inactive
COc1cccc([C@@]2(O)CCCC[C@@H]2CN(C)C)c1,Potency,MKL-2,inactive
same,Potency,HeLa,inactive
same,Potency,OV90,inactive
CC#C[C@]1(O)CC[C@H]2[C@@H]3C[C@H](C)C4=CC(=O)CC[C@]4(C)[C@H]3CC[C@@]21C,Potency,MKL-2,"inconclusive: 5.96 µM [inhibitor, single point]"
same,Potency,JEG-3,"inconclusive: 39.8 µM [cytotoxic, single point]"
same,Potency,OV90,"inconclusive: 35.5 µM [cytotoxic, partial curve, poor fit]"
CC(Cc1ccccc1)NCCCCl (stereo unspecified),Potency,MKL-2,"inconclusive: 18.8 µM [inhibitor, single point]"
same,Potency,OV90,inactive
C[C@]12Cc3cn[nH]c3C[C@@H]1CC[C@@H]1[C@H]2CC[C@@]2(C)[C@H]1CC[C@]2(C)O,Potency,UISO,inactive
C[C@@H]1CC2=CC(=O)CC[C@@H]2[C@H]2CC[C@@]3(C)[C@@H](CC[C@]3(C)O)[C@@H]21,Potency,MKL-2,inactive
same,Potency,CAOV3,inactive
same,Potency,Es-2,inactive
same,Potency,HeLa,inactive
same,Potency,OV90,"inconclusive: 25.1 µM [cytotoxic, single point]"
